In the supplement of paper PMC7125110:
± gives the standard error. Variants at the background level are over-represented here.

B1: glmS ribozyme (parent)
chain: AUAAAAGCGCCAGAACUACAGAAAUGUAGUUGACGAGGAGGAGGUUUAUCGAAUUUUCGGCGGAUGCCUCCAAA

Columns and labels:
Details in all cases: with glucosamine-6-phosphate
glucosamine-6-phosphate [1] = variants of: B1; experiment: self-cleavage kobs at 40 uM GlcN6P; higher = faster cleavage; RNA array
In short: (§1)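 Tracking of barcoded ribozyme variants used a hybridised Cy3 probe at 37 °C, after in situ transcription by E. coli RNA polymerase on sequenced MiSeq chips. The flowed solution held 40 μM to 10 mM glucosamine-6-phosphate in HEPES/KCl/Mg(OAc)2 buffer, and imaging ran over ~14 h. kobs was taken from exponential decay fits of normalised per-tile medians, and kcat and KM from weighted Michaelis–Menten fits.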

glucosamine-6-phosphate [2] = variants of: B1; experiment: self-cleavage kobs at 10000 uM GlcN6P; higher = faster cleavage; RNA array
In short: as §1

glucosamine-6-phosphate [3] = variants of: B1; experiment: self-cleavage kobs at 640 uM GlcN6P; higher = faster cleavage; RNA array
In short: as §1

glucosamine-6-phosphate [4] = variants of: B1; experiment: self-cleavage kobs at 160 uM GlcN6P; higher = faster cleavage; RNA array
In short: as §1

glucosamine-6-phosphate [5] = variants of: B1; experiment: self-cleavage kobs at 2500 uM GlcN6P; higher = faster cleavage; RNA array
In short: as §1

G13A G66C was tested, and the “self-cleavage kobs at 40 uM GlcN6P” value (glucosamine-6-phosphate [1]) was under 1e-05 s⁻¹.

G13A U55C C67A C71U was tested, and the “self-cleavage kobs at 40 uM GlcN6P” value (glucosamine-6-phosphate [1]) was under 1e-05 s⁻¹ and the “self-cleavage kobs at 10000 uM GlcN6P” value (glucosamine-6-phosphate [2]) was under 1e-05 s⁻¹.

With G13C A33C A36C the “self-cleavage kobs at 40 uM GlcN6P” value (glucosamine-6-phosphate [1]) was under 1e-05 s⁻¹.

With G13C A36C C71G the “self-cleavage kobs at 40 uM GlcN6P” value (glucosamine-6-phosphate [1]) was under 1e-05 s⁻¹ and the “self-cleavage kobs at 640 uM GlcN6P” value (glucosamine-6-phosphate [3]) was under 1e-05 s⁻¹.

For G13C A42G A48U C70U, the “self-cleavage kobs at 40 uM GlcN6P” value (glucosamine-6-phosphate [1]) was under 1e-05 s⁻¹, the “self-cleavage kobs at 640 uM GlcN6P” value (glucosamine-6-phosphate [3]) was under 1e-05 s⁻¹ and the “self-cleavage kobs at 160 uM GlcN6P” value (glucosamine-6-phosphate [4]) was under 1e-05 s⁻¹.

For G13C C67A, the “self-cleavage kobs at 40 uM GlcN6P” value (glucosamine-6-phosphate [1]) was under 1e-05 s⁻¹.

With G13C C71U the “self-cleavage kobs at 40 uM GlcN6P” value (glucosamine-6-phosphate [1]) was under 1e-05 s⁻¹.

For G13C G32U G38A G40A U55C C68U, the “self-cleavage kobs at 40 uM GlcN6P” value (glucosamine-6-phosphate [1]) was under 1e-05 s⁻¹ and the “self-cleavage kobs at 10000 uM GlcN6P” value (glucosamine-6-phosphate [2]) was under 1e-05 s⁻¹.

In the case of G13U A42G U49C A53U, the “self-cleavage kobs at 40 uM GlcN6P” value (glucosamine-6-phosphate [1]) is reported as under 1e-05 s⁻¹ and the “self-cleavage kobs at 2500 uM GlcN6P” value (glucosamine-6-phosphate [5]) is reported as under 1e-05 s⁻¹.

In the case of G13U C50G C61G, the “self-cleavage kobs at 40 uM GlcN6P” value (glucosamine-6-phosphate [1]) is reported as 8.16e-05 ± 1.3e-05 s⁻¹.

With G13U C68A the “self-cleavage kobs at 40 uM GlcN6P” value (glucosamine-6-phosphate [1]) was under 1e-05 s⁻¹.

For G13U G35A U45A A64G, the “self-cleavage kobs at 40 uM GlcN6P” value (glucosamine-6-phosphate [1]) was under 1e-05 s⁻¹, the “self-cleavage kobs at 640 uM GlcN6P” value (glucosamine-6-phosphate [3]) was under 1e-05 s⁻¹ and the “self-cleavage kobs at 2500 uM GlcN6P” value (glucosamine-6-phosphate [5]) was under 1e-05 s⁻¹. For the same variant, the “self-cleavage kobs at 10000 uM GlcN6P” value (glucosamine-6-phosphate [2]) was under 1e-05 s⁻¹.

With G13U G41A the “self-cleavage kobs at 40 uM GlcN6P” value (glucosamine-6-phosphate [1]) was under 1e-05 s⁻¹ and the “self-cleavage kobs at 160 uM GlcN6P” value (glucosamine-6-phosphate [4]) was under 1e-05 s⁻¹.

G13U G43A was tested, and the “self-cleavage kobs at 40 uM GlcN6P” value (glucosamine-6-phosphate [1]) was under 1e-05 s⁻¹, the “self-cleavage kobs at 640 uM GlcN6P” value (glucosamine-6-phosphate [3]) was under 1e-05 s⁻¹ and the “self-cleavage kobs at 160 uM GlcN6P” value (glucosamine-6-phosphate [4]) was under 1e-05 s⁻¹. For the same variant, the “self-cleavage kobs at 10000 uM GlcN6P” value (glucosamine-6-phosphate [2]) was under 1e-05 s⁻¹.

G13U G44C was tested, and the “self-cleavage kobs at 40 uM GlcN6P” value (glucosamine-6-phosphate [1]) was under 1e-05 s⁻¹, the “self-cleavage kobs at 640 uM GlcN6P” value (glucosamine-6-phosphate [3]) was under 1e-05 s⁻¹ and the “self-cleavage kobs at 160 uM GlcN6P” value (glucosamine-6-phosphate [4]) was under 1e-05 s⁻¹. The “self-cleavage kobs at 10000 uM GlcN6P” value (glucosamine-6-phosphate [2]) was under 1e-05 s⁻¹.

G13U G59C U65A was tested, and the “self-cleavage kobs at 40 uM GlcN6P” value (glucosamine-6-phosphate [1]) was under 1e-05 s⁻¹.

In the case of A14C G35U A48U, the “self-cleavage kobs at 40 uM GlcN6P” value (glucosamine-6-phosphate [1]) is reported as under 1e-05 s⁻¹.

With A14C G40C C68U the “self-cleavage kobs at 40 uM GlcN6P” value (glucosamine-6-phosphate [1]) was under 1e-05 s⁻¹ and the “self-cleavage kobs at 640 uM GlcN6P” value (glucosamine-6-phosphate [3]) was under 1e-05 s⁻¹.

For A14C G41C U45G U47G U57A, the “self-cleavage kobs at 40 uM GlcN6P” value (glucosamine-6-phosphate [1]) was under 1e-05 s⁻¹, the “self-cleavage kobs at 640 uM GlcN6P” value (glucosamine-6-phosphate [3]) was under 1e-05 s⁻¹ and the “self-cleavage kobs at 160 uM GlcN6P” value (glucosamine-6-phosphate [4]) was under 1e-05 s⁻¹. The “self-cleavage kobs at 2500 uM GlcN6P” value (glucosamine-6-phosphate [5]) was under 1e-05 s⁻¹ and the “self-cleavage kobs at 10000 uM GlcN6P” value (glucosamine-6-phosphate [2]) was under 1e-05 s⁻¹.

In the case of A14C G43A, the “self-cleavage kobs at 40 uM GlcN6P” value (glucosamine-6-phosphate [1]) is reported as under 1e-05 s⁻¹.

For A14C G62A, the “self-cleavage kobs at 40 uM GlcN6P” value (glucosamine-6-phosphate [1]) was under 1e-05 s⁻¹, the “self-cleavage kobs at 640 uM GlcN6P” value (glucosamine-6-phosphate [3]) was under 1e-05 s⁻¹ and the “self-cleavage kobs at 10000 uM GlcN6P” value (glucosamine-6-phosphate [2]) was under 1e-05 s⁻¹.

For A14C U55G, the “self-cleavage kobs at 40 uM GlcN6P” value (glucosamine-6-phosphate [1]) was 9.05e-05 ± 2.8e-05 s⁻¹ and the “self-cleavage kobs at 10000 uM GlcN6P” value (glucosamine-6-phosphate [2]) was 0.00435 ± 0.0012 s⁻¹.

A14G A15G was tested, and the “self-cleavage kobs at 40 uM GlcN6P” value (glucosamine-6-phosphate [1]) was 0.00218 ± 0.00029 s⁻¹, the “self-cleavage kobs at 640 uM GlcN6P” value (glucosamine-6-phosphate [3]) was 0.0134 ± 0.0029 s⁻¹ and the “self-cleavage kobs at 160 uM GlcN6P” value (glucosamine-6-phosphate [4]) was 0.0049 ± 0.0015 s⁻¹. For the same variant, the “self-cleavage kobs at 2500 uM GlcN6P” value (glucosamine-6-phosphate [5]) was 0.0102 ± 0.0027 s⁻¹ and the “self-cleavage kobs at 10000 uM GlcN6P” value (glucosamine-6-phosphate [2]) was 0.109 ± 0.035 s⁻¹.

With A14G A15U G29A the “self-cleavage kobs at 40 uM GlcN6P” value (glucosamine-6-phosphate [1]) was 3.49e-05 ± 1.3e-05 s⁻¹ and the “self-cleavage kobs at 10000 uM GlcN6P” value (glucosamine-6-phosphate [2]) was 0.00133 ± 0.00028 s⁻¹.

With A14G A36C A39U G40C the “self-cleavage kobs at 40 uM GlcN6P” value (glucosamine-6-phosphate [1]) was under 1e-05 s⁻¹ and the “self-cleavage kobs at 10000 uM GlcN6P” value (glucosamine-6-phosphate [2]) was under 1e-05 s⁻¹.

In the case of A14G A42C G44U A48U G62A, the “self-cleavage kobs at 40 uM GlcN6P” value (glucosamine-6-phosphate [1]) is reported as under 1e-05 s⁻¹.

In the case of A14G G37A U54A, the “self-cleavage kobs at 40 uM GlcN6P” value (glucosamine-6-phosphate [1]) is reported as 7.89e-05 ± 1.6e-05 s⁻¹.

In the case of A14G G43C, the “self-cleavage kobs at 40 uM GlcN6P” value (glucosamine-6-phosphate [1]) is reported as under 1e-05 s⁻¹, the “self-cleavage kobs at 640 uM GlcN6P” value (glucosamine-6-phosphate [3]) is reported as under 1e-05 s⁻¹ and the “self-cleavage kobs at 160 uM GlcN6P” value (glucosamine-6-phosphate [4]) is reported as under 1e-05 s⁻¹.

For A14G G51A, the “self-cleavage kobs at 40 uM GlcN6P” value (glucosamine-6-phosphate [1]) was under 1e-05 s⁻¹.
